Data on 26 compounds can be found in PubChem BioAssay AID485344 (National Center for Advancing Translational Sciences (NCATS), 2010).

Hit rate of the full screen: of about 340,000 compounds, about 6,900 (2%) were called active. Rule as the data show it: active = inhibition above about 30%; inactive = below that, where a call was filed. Only a part is listed here, and it is no random draw. The source gives no active or inactive call for entries shown without one.

Chain of UniProt P14416 (P14416 whole entry, looked up): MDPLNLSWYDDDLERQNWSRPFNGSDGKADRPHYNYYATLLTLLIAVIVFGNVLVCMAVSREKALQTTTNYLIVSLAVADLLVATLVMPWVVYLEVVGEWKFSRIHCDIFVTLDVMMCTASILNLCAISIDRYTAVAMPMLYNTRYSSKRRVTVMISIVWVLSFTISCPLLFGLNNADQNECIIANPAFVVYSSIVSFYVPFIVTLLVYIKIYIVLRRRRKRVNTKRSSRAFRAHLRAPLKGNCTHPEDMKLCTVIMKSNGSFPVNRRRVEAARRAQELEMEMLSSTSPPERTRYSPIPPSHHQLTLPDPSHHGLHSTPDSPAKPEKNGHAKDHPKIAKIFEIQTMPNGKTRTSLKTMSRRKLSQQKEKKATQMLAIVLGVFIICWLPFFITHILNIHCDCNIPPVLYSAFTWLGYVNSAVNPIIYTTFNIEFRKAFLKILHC

This assay has as its target D(2) dopamine receptor (Homo sapiens) (UniProt P14416). Kind of assay: HTS Assay for Allosteric Antagonists of the Human D2 Dopamine Receptor: Primary Screen for Antagonists. Also: 0% is about no effect. The note with it: HEK293 TREx D2 cells, calcium flux, dopamine EC80; at 10 µM; stronger effect = higher value. The method, boiled down:
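Overnight-induced (tetracycline, 30 C) HEK293 T-REx cells carrying force-coupled D2 receive a no-wash calcium dye, then compound, then EC80 dopamine at 180 s; signals are read kinetically throughout.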
For orientation: Calcium assays in cells follow changes in intracellular calcium, usually with a dye or a luminescent sensor.
Consider `CCCOc1ccccc1C(=O)N(Cc1cccc(Br)c1)C1CCS(=O)(=O)C1` (stereo unspecified), for which the inhibition (in general, the drop in the measured response relative to a control, in per cent) is active: 47.5%.

`Cc1cc(C)c(NC(=O)c2oc3c(c2C)-c2[nH]ncc2CC3)c(C)c1`: the inhibition turned out to be 12.5%.

On to `O=C(Cn1cc(S(=O)(=O)Cc2ccccc2Cl)c2ccccc21)NCCc1ccccc1`, for which the inhibition was found to be 1.33%.

For `COc1ccc(NC(=O)c2c(NC(=O)COc3ccccc3)sc3c2CCCCC3)cc1`, the inhibition was -8.21%.

For `Cc1nc2c3ccccc3n(CCN3CCCCC3)c2s1`, the inhibition was active: 39.6%.

In the case of `O=C(NCc1ccc(F)cc1)C(=O)Nc1ccc2nc3n(c(=O)c2c1)CCCCC3`, the inhibition is -7.58%.

On to `CCn1nnc2cc(C(=O)Nc3cc(C)ccc3C)ccc21`, for which the inhibition is -0.525%.

Turning to `Cc1ccc(-c2cc3ncc4c(n3n2)-c2cc(Cl)ccc2OC4)cc1`, the inhibition is -1.37%.

Take `COc1ccc(NC(=O)CCNS(=O)(=O)c2ccc3c(c2)CCCC(=O)N3)cc1`: the inhibition is -15.1%.

For the compound `COc1ccc(NC(=O)CC2C(=O)N(c3cccc(OC)c3)C(=O)N2CCC2=CCCCC2)cc1` (stereo unspecified), the inhibition was 2.61%.

Take `CCc1cc2c(cc3c(=O)n(CC(=O)N4CCN(c5cccc(C)c5C)CC4)nc(CC)n32)s1`: the inhibition came out at 0.34%.

Turning to `CCc1ccccc1NC(=O)CCC(=O)N1CC(C)Oc2ccc(C)cc21` (stereo unspecified), the inhibition is 23.1%.

On to `COc1ccc(CCNCc2c(C(=O)O)c(C)n(Cc3cccc(Cl)c3)c2C)c(OC)c1OC`, for which the inhibition is 13.3%.

For `O=C(Cn1cc(C(=O)c2ccccc2)c(=O)c2cc3c(cc21)OCCO3)Nc1ccc(F)c(F)c1`, the inhibition was -0.715%.

As to `COc1ccc(CCNC(=O)c2cc3c(=O)n(C)c4ccccc4c3s2)cc1OC`, the inhibition is -13.7%.

In the case of `O=C(c1ccco1)N1CCN(Cc2ccc(F)cc2Cl)CC1`, the inhibition is active: 58%.

In the case of `CCCn1c(=O)c2sccc2n2c(CCCC(=O)N3CCN(c4cccc(Cl)c4)CC3)nnc12`, the inhibition is -2.21%.

Regarding `CC(=O)c1cccc(NC(=O)CN2C(=O)CC(c3ccc(C)cc3C)=Nc3ccccc32)c1`, the inhibition was found to be 8.15%.

Turning to `O=C(/C=C/c1ccc(Cl)cc1)N1CCC(c2nc3ccccc3o2)CC1`, the inhibition is -10.7%.

Consider `CCCCN(CC)CCCNC(=O)c1cn(CC)c2ccc(S(=O)(=O)N3CCc4ccccc4C3)cc2c1=O`, for which the inhibition stood at 8.87%.

In the case of `Cc1ccc(NS(=O)(=O)c2ccc3nc(-c4ccccc4)[nH]c3c2)c(Br)c1`, the inhibition was -6.59%.

Consider `Cc1ccc(Nc2nc3ccc(C(=O)c4ccccc4)cc3n3c(C)nnc23)c(C)c1`, for which the inhibition amounted to 1.95%.

Consider `COc1ccc(-c2noc(CC(=O)Nc3cc(OC)ccc3OC)n2)cc1`, for which the inhibition is -12.7%.

Regarding `Cc1sc2ncn(CC(=O)N(C)c3ccc(C(C)C)cc3)c(=O)c2c1S(=O)(=O)N1CCC(C)CC1`, the inhibition was -4.63%.

For `CC1CCC(NC(=O)C2(C)Cc3ccccc3C(=O)N2Cc2ccc(Cl)cc2)CC1` (stereo unspecified), the inhibition turned out to be 4.69%.

In the case of `CCOC(=O)c1ccccc1NC(=O)c1cc2ccc3cccnc3c2[nH]1`, the inhibition came to 10.9%.
